# From PubChem BioAssay AID1508642 (National Center for Advancing Translational Sciences (NCATS), 2021)
# Screen size: about 43,000 compounds; about 200 (0.47%) were called active. About 12% were inconclusive and are not listed. Calls come from the whole dose curve; as a rule, active = well fitted cell-killing curve with a large enough effect; inconclusive = small, poorly fitted or top-dose-only effect, or effect the other way; inactive = flat fitted curve, though single readings scatter. The list shows a part of the results.
# Test: Cell viability qHTS assay in S16 Pmp22-F2sN cells; note: nearly all actives have a fitted effect of over 65% in size
# Conditions: S16 Pmp22-F2sN Schwann cells viability, CellTiter-Glo, 24 h; series mostly up to 57.5 µM; activity change, negative = cytotoxicity: at the top concentration
# Outline: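 Viability was measured by CellTiter-Glo luminescence (15 min, room temperature). This followed 24 h at 37 °C of compound exposure (23 nL pin transfer) in S16 Pmp22-F2sN Schwann cells, 500-1,000 per well.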
# % is set by controls: 0 for no effect and ±100 for the full control effect; potency is the fitted concentration of half-maximal effect.
Structure (SMILES),"activity change, negative = cytotoxicity",Potency
COc1ccc(N(CC(=O)NCCc2cccc(C)c2)S(=O)(=O)c2c(C)noc2C)cc1,inactive: -5.41%,–
Cc1cc(C(=O)NCCc2ccc(Cl)cc2)c2c(C)nn(-c3cccc(F)c3)c2n1,inactive: 3.25%,–
CC1CCCN(c2cc3c(cc2F)c(=O)c(S(=O)(=O)c2cccc(Cl)c2)cn3C)C1 (stereo not drawn),inactive: 23.2%,–
O=C(NC1CCCCC1)c1c[nH]c2ccc(S(=O)(=O)Nc3ccccc3F)cc2c1=O,inactive: -11%,–
CC(C)(C)c1ccc(C(=O)NC(Cc2c[nH]c3ccccc23)C(=O)OCC(=O)c2ccccc2)cc1 (stereo not drawn),inactive: 9.39%,–
CCOC(=O)c1ccc(NC(=O)c2c(NCc3sccc3C)sc3c2CCCCC3)cc1,inactive: 16.7%,–
Cn1cc(C(=O)NCc2ccc(Cl)cc2)c(=O)c2cc(S(=O)(=O)N3CCCCCC3)ccc21,inactive: -2.83%,–
COc1ccc(S(=O)(=O)N(CC(=O)N(C)Cc2ccccc2)c2ccc(Cl)cc2)cc1,inactive: 25.9%,–
Cc1cccc(OCC(=O)Nc2ccc(-c3nc4cc(C)ccc4o3)c(O)c2)c1,inactive: -0.51%,–
COc1ccc(NC(=O)CSc2nnc(NC(=O)Nc3ccccc3)s2)c(OC)c1,inactive: 0.19%,–
CCc1ccc(NC(=O)CSc2nc3ccccc3nc2Cc2ccccc2OC)cc1,inactive: -4.41%,–
N#Cc1cccc(NC(=O)CCNS(=O)(=O)c2ccc3c(c2)CCN3C(=O)C2CC2)c1,inactive: 0.0052%,–
Cc1ccc(-n2nnnc2CNC(=O)c2ccccc2C)cc1C,inactive: -9.6%,–
Cc1ccc2c(c1)C(c1ccc(F)cc1)N(C(=O)c1cccc(C(F)(F)F)c1)CC(=O)N2 (stereo not drawn),inactive: -9.48%,–
COc1cccc(N2CCN(Cc3cc(=O)oc4cc(C)ccc34)CC2)c1,inactive: 8%,–
Cc1cc(C)cc(-n2ccnc2SCC(=O)Nc2nc3ccc(C)cc3s2)c1,inactive: 3.39%,–
CN(C)c1ccc(CNC(=O)Cn2ccc3cc(S(=O)(=O)N4CCCCCC4)ccc32)cc1,inactive: -13%,–
COc1ccc(-c2nc(Cn3c(=O)cc(C)c4c(C)nn(-c5ccccc5)c43)c(C)o2)c(OC)c1,inactive: 9.69%,–
CCOC(=O)c1c(C)[nH]c(CCC(=O)NCCCN2CCN(c3ccccc3F)CC2)c1C,inactive: -0.512%,–
O=C(Nc1nnc(S(=O)(=O)N2CCc3ccccc32)s1)c1ccccc1Cl,inactive: -1.72%,–

Structure (SMILES),"activity change, negative = cytotoxicity",Potency
Cc1c2cnn(CC(=O)N3CCN(c4ccc(F)cc4)CC3)c(=O)c2c(C)n1Cc1ccccc1F,inactive: -20.2%,–
Cc1ccc2c(CC(=O)N(Cc3cccc(Cl)c3)C3CCS(=O)(=O)C3)coc2c1 (stereo not drawn),inactive: -0.196%,–
CNS(=O)(=O)c1cn(CC(=O)N2CCN(c3ccccc3OC)CC2)cc1S(=O)(=O)NC,inactive: 13.4%,–
CCOC(=O)C1CCCN(C(=O)c2ccc(NC(=O)c3nsc4ccccc34)cc2)C1 (stereo not drawn),inactive: -10.3%,–
COC(=O)c1ccccc1NC(=O)Cn1c(=O)cc(C)c2c(C)nn(-c3cccc(Cl)c3C)c21,inactive: -2.92%,–
O=C(CCn1cnc2onc(-c3ccc(F)cc3)c2c1=O)N1CCN(c2ccccc2F)CC1,inactive: -9.95%,–
O=C(CC1Nc2cccc3cccc(c23)NC1=O)Nc1ccc(F)cc1 (stereo not drawn),inactive: -27.5%,–
CS(=O)(=O)N1CCc2cc(C(=O)Nc3ccc(S(N)(=O)=O)cc3)ccc21,inactive: 1.55%,–
COc1cccc(Nc2sc(C(=O)c3ccc(Cl)cc3)c(N)c2C(=O)NCCc2ccc(OC)c(OC)c2)c1,inactive: -4.71%,–
CCCN(Cc1cccs1)C(=O)Nc1ccc(F)c(Cl)c1,inactive: 2.39%,–
COc1cc(Cl)c(NC(=O)C(NS(=O)(=O)c2cccs2)C(C)C)c(OC)c1 (stereo not drawn),inactive: -2.2%,–
Cc1ccc(-n2ncc(C(=O)NCCCN3CCN(C)CC3)c2C2CCN(C(=O)OC(C)(C)C)CC2)c(C)c1,inactive: 9.8%,–
CC(C)(C)OC(=O)N1CCC(c2c(C(=O)N3CCCCC3)cnn2-c2ccc(F)cc2F)CC1,inactive: -1.57%,–
Cn1c(Oc2ccccc2)nc2c1c(=O)n(Cc1ccc(Cl)cc1Cl)c(=O)n2C,inactive: 1.05%,–
CCCSc1nnc2n(-c3cccc(C)c3)c(=O)c3c4c(sc3n12)CCCC4,inactive: -11.8%,–
Cc1ccc(C)c(NC(=O)Cn2c(=O)n(Cc3ccc4c(c3)OCO4)c(=O)c3ccccc32)c1,inactive: 17%,–
CCC1CN(C(=O)N2CCC(C(=O)NCc3ccco3)CC2)c2ccccc2O1 (stereo not drawn),inactive: 5.17%,–
Cc1ccc(-n2c(SCC(=O)Nc3c(C)cccc3C)nc(O)c(C)c2=O)cc1,inactive: 0.392%,–
COCCNC(=O)C(=O)NCC(c1cccnc1)N1CCN(c2ccccc2)CC1 (stereo not drawn),inactive: -0.196%,–
O=C(Cc1ccc(Cl)cc1)Nc1ccc2nn(-c3ccccc3)nc2c1,inactive: 20%,–

Structure (SMILES),"activity change, negative = cytotoxicity",Potency
CC(C)CCNc1ncnc2c1cnn2-c1cccc(Cl)c1,inactive: 8.73%,–
Cc1ccccc1C(c1c(C)n(C)n(-c2ccccc2)c1=O)c1c(C)n(C)n(-c2ccccc2)c1=O,inactive: 7.07%,–
CCS(=O)(=O)c1ncc(Cl)c(C(=O)N(Cc2ccccc2)c2ccc(OC)cc2)n1,–,active: 4.47 µM
Cc1ccc(-n2ncc3c(=O)n(Cc4ccccc4C)cnc32)cc1C,inactive: -0.506%,–
Cc1cc(C)c(CN2C(=O)c3ccccc3S(=O)(=O)c3ccc(C(=O)OCC4CCCO4)cc32)c(C)c1 (stereo not drawn),inactive: 1.02%,–
CC(C)c1ccc(NC(=O)Cn2c(=O)n(Cc3nc(-c4ccccc4)no3)c(=O)c3cc4c(cc32)OCO4)cc1,inactive: 1.64%,–
CC(=O)c1cccc(NC(=O)N2CCC(CN3CCCCC3)CC2)c1,inactive: 6.2%,–
CCOC(=O)c1ccc(NC(=O)c2cc3c([nH]c2=O)CC(c2ccccc2)CC3=O)cc1 (stereo not drawn),inactive: -14.1%,–
CCn1c(=O)c2sccc2n2c(CCCC(=O)Nc3ccc(OC)c(OC)c3)nnc12,inactive: 17%,–
Cc1cc(C)n(C(C)CC(=O)Nc2ccc(C)c(F)c2)n1 (stereo not drawn),inactive: -3.43%,–
Cc1ccccc1Cn1c(SCc2ccc(C(=O)NCCc3ccccc3)cc2)nc2ccncc21,inactive: -29.4%,–
CSc1ncc(Cl)c(C(=O)N(Cc2ccc(C(C)C)cc2)C2CCS(=O)(=O)C2)n1 (stereo not drawn),inactive: -6.91%,–
COc1ccc(-n2cc(-c3ccc4c(c3)OCO4)n(CC(=O)Nc3cccc(C)c3)c2=O)cc1,inactive: -12.4%,–
CCCCC1CCC(CCCC(C)CCC(=O)O)CC1 (stereo not drawn),inactive: 11.1%,–
COc1cccc(-c2n[nH]c3c2C(c2ccccn2)N(C)C3=O)c1 (stereo not drawn),inactive: 11.2%,–
O=C(CC1N=C2c3ccccc3N=C(SCC(=O)Nc3ccc(F)cc3)N2C1=O)NCc1ccc2c(c1)OCO2 (stereo not drawn),inactive: -4.53%,–
Cc1cccc(NC(=O)Cn2cc(S(=O)(=O)Cc3ccccc3Cl)c3ccccc32)c1,inactive: -5.13%,–
Cc1noc(Cn2c(=O)c3ccccc3n(CC(=O)Nc3ccc(C(C)C)cc3)c2=O)n1,inactive: -11.6%,–
